Results from publication PMC4076271.
No constants are given. Whether binding was seen depends on the method and setting. Binding seen in cells or lysates may run through a third protein. Some entries that bind do so weakly or less than the wild type. For some assays here: Tags and fused reporters may be left off the sequences shown.

The chains behind the UniProt entries cited, without tags or fusion partners.
UniProt Q15717: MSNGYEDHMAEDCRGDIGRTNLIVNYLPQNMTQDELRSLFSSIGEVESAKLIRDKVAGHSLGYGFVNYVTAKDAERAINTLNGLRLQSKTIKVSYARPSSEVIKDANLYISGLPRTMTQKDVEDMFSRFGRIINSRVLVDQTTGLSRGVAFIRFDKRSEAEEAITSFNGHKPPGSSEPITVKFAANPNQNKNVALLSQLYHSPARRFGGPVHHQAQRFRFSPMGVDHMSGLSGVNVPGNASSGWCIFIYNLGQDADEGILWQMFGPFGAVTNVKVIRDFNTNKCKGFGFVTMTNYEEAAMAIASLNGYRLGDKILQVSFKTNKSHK
UniProt P26651: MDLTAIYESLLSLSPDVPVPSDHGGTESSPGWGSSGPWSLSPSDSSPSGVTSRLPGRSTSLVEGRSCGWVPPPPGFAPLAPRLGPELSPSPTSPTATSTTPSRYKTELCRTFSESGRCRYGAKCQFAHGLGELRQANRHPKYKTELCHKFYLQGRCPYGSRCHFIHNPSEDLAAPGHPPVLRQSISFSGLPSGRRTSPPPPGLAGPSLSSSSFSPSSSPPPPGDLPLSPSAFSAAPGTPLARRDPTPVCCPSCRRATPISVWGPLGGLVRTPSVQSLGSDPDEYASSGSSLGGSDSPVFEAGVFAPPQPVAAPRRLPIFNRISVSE
UniProt P70372: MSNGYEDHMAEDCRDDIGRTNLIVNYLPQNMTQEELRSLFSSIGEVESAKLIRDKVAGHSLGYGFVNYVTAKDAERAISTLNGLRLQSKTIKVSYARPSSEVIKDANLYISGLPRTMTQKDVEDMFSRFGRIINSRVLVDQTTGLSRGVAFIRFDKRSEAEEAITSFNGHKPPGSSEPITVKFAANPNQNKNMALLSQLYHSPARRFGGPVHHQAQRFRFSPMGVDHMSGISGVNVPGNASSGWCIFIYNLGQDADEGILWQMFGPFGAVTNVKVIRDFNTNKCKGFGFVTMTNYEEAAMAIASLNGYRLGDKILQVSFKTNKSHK
UniProt P62258: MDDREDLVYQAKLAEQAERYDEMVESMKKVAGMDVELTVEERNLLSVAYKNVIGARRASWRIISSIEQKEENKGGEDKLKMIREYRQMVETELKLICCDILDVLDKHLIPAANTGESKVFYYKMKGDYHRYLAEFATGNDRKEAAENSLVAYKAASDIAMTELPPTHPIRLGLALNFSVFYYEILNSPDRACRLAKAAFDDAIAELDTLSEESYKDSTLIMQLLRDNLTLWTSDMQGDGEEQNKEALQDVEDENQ
UniProt P27708: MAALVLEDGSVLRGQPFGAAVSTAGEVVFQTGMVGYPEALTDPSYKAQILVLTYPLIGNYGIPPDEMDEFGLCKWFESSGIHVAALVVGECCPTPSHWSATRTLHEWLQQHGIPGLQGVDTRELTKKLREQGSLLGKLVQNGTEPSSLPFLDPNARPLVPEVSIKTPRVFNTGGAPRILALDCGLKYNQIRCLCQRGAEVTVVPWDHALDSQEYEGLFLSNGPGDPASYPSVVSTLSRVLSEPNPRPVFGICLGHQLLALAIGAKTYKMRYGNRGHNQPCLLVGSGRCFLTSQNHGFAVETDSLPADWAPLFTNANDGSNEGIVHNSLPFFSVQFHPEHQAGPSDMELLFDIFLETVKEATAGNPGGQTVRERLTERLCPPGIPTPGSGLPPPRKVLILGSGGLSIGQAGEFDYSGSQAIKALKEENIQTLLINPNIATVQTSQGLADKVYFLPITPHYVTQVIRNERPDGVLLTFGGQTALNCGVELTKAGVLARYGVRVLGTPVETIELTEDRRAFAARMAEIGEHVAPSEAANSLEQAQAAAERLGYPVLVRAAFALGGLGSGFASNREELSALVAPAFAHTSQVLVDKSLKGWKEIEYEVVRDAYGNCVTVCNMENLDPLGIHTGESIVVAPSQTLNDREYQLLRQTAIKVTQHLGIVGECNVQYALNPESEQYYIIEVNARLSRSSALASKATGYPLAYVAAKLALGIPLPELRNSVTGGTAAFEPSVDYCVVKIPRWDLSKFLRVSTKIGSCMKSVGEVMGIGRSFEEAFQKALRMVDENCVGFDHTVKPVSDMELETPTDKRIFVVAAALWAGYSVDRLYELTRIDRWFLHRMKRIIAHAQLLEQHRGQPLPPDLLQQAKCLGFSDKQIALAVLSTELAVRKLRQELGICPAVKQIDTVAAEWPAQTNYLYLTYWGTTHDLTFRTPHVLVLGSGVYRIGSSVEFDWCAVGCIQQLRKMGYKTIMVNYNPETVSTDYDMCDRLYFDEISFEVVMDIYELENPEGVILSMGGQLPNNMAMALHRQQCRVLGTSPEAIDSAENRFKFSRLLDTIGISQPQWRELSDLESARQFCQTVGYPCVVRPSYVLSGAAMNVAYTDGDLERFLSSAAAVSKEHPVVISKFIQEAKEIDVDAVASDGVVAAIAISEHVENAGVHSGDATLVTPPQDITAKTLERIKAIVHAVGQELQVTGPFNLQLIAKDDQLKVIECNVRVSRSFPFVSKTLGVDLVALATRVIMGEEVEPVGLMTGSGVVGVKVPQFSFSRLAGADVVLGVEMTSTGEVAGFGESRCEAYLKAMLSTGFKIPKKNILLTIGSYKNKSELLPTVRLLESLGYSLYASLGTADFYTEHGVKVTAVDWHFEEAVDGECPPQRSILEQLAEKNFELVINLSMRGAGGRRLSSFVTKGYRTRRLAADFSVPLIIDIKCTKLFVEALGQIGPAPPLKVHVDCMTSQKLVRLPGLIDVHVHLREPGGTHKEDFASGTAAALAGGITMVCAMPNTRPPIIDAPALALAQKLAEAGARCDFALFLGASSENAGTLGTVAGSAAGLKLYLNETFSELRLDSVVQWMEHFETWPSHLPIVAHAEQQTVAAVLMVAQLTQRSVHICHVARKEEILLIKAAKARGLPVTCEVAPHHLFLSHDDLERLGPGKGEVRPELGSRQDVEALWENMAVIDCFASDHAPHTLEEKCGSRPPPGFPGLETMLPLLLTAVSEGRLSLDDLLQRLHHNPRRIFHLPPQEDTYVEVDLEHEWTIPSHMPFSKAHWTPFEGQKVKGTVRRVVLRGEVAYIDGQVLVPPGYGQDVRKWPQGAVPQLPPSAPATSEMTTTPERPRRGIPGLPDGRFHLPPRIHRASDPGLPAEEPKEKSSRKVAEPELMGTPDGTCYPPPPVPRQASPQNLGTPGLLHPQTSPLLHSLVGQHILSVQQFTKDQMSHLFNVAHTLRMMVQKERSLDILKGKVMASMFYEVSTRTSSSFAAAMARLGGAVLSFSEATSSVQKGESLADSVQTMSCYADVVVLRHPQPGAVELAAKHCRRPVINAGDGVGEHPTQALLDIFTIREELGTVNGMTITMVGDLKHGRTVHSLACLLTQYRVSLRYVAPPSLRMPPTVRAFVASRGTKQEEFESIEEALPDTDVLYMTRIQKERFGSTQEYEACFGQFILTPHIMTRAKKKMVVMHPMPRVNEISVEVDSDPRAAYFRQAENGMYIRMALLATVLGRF

Tests used:
[1] = target: T1, TTP (tristetraprolin), endogenous in RAW264.7 macrophage cells (mouse (endogenous in RAW264.7)) (UniProt P22893); experiment: co-IP; anti-TTP IP (Protein A sepharose) of endogenous proteins from RNase A-treated extracts of RAW264.7 cells after 2 and 6 h of 100 ng/ml LPS; 150 mM NaCl, Net-2 buffer, 4°C; Western blot
T1 sequence: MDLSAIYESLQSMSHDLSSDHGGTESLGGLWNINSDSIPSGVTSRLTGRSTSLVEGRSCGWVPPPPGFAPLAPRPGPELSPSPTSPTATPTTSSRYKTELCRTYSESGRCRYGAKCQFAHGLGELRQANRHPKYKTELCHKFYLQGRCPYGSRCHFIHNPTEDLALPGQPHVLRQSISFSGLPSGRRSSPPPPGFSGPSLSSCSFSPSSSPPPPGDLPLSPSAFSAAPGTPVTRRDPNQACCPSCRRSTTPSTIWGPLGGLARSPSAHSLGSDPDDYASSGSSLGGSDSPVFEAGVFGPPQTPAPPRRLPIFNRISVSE

Flag-tagged BRF1 = target: T2, Flag-tagged BRF1 (UniProt Q07352); experiment: co-IP; anti-Flag IP from RNase-treated extracts of HEK 293T cells transiently co-expressing Flag-tagged bait and Myc-tagged proteins; Western blot
T2 sequence: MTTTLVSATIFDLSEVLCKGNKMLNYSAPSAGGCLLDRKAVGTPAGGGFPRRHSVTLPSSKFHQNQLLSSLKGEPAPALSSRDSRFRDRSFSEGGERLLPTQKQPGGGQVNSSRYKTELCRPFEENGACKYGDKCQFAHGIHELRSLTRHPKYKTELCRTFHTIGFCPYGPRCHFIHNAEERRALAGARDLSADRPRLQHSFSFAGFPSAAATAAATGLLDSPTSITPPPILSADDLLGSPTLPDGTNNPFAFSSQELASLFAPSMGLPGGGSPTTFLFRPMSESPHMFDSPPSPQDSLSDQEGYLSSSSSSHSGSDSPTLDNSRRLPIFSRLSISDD

Flag-tagged HuR = Flag-tagged HuR (UniProt Q15717); experiment: as above
[2] = target: Flag-tagged TTP (tristetraprolin) (UniProt P26651); experiment: as above
[3] = target: T1, TTP (tristetraprolin), endogenous in RAW264.7 macrophage cells (mouse (endogenous in RAW264.7)); experiment: condition: only cells without LPS (TTP expressed only at low levels); co-IP; anti-TTP IP of endogenous proteins from RNase A-treated extracts of RAW264.7 cells prior to LPS treatment (0 h), TTP expressed only at low levels; Western blot
[4] = target: T3, hnRNP F, endogenous in RAW264.7 macrophage cells (mouse (endogenous in RAW264.7)) (UniProt Q9Z2X1); experiment: condition: only cells without LPS (TTP expressed only at low levels); co-IP; anti-hnRNP F/H (1G11) IP of endogenous proteins from RNase A-treated extracts of RAW264.7 cells prior to LPS treatment (0 h), TTP expressed only at low levels; Western blot
T3 sequence: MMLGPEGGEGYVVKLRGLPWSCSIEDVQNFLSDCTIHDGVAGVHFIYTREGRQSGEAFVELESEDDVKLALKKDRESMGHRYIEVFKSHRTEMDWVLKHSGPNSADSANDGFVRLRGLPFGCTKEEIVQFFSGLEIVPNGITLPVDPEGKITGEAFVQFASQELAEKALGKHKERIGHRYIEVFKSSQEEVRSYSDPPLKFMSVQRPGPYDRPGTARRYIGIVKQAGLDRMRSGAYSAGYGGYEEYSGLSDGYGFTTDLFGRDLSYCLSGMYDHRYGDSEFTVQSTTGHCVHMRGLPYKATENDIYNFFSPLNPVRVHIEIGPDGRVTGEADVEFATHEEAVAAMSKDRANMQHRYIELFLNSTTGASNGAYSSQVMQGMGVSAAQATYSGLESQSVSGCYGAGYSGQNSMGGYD

[5] = target: T3, hnRNP F, endogenous in RAW264.7 macrophage cells (mouse (endogenous in RAW264.7)); experiment: co-IP; anti-hnRNP F/H (1G11) IP (Protein G sepharose) of endogenous proteins from RNase A-treated extracts of RAW264.7 cells after 2 and 6 h of 100 ng/ml LPS; 150 mM NaCl, Net-2 buffer, 4°C; Western blot

With “HuR, endogenous in RAW264.7 macrophage cells (from UniProt P70372 1-326)” the binding [1] was “no binding”.

For “Myc-tagged 14-3-3ε (from UniProt P62258 1-255)”, the binding (Flag-tagged BRF1) was “binds”, the binding (Flag-tagged HuR) was “no binding” and the binding [2] was “binds”.

In the case of “Myc-tagged CAD (carbamoyl-phosphate synthetase 2, aspartate transcarbamylase, and dihydroorotase) (from UniProt P27708 1-2225)”, the binding (Flag-tagged BRF1) is reported as “binds”, the binding (Flag-tagged HuR) is reported as “no binding” and the binding [2] is reported as “binds”.

B1: hnRNP F, endogenous in RAW264.7 macrophage cells (protein, UniProt Q9Z2X1 1-415)
chain: MMLGPEGGEGYVVKLRGLPWSCSIEDVQNFLSDCTIHDGVAGVHFIYTREGRQSGEAFVELESEDDVKLALKKDRESMGHRYIEVFKSHRTEMDWVLKHSGPNSADSANDGFVRLRGLPFGCTKEEIVQFFSGLEIVPNGITLPVDPEGKITGEAFVQFASQELAEKALGKHKERIGHRYIEVFKSSQEEVRSYSDPPLKFMSVQRPGPYDRPGTARRYIGIVKQAGLDRMRSGAYSAGYGGYEEYSGLSDGYGFTTDLFGRDLSYCLSGMYDHRYGDSEFTVQSTTGHCVHMRGLPYKATENDIYNFFSPLNPVRVHIEIGPDGRVTGEADVEFATHEEAVAAMSKDRANMQHRYIELFLNSTTGASNGAYSSQVMQGMGVSAAQATYSGLESQSVSGCYGAGYSGQNSMGGYD
B1 was tested, and the binding [1] was “binds” and the binding [3] was “no binding”.

B2: TTP (tristetraprolin), endogenous in RAW264.7 macrophage cells (protein, UniProt P22893 1-319)
chain: MDLSAIYESLQSMSHDLSSDHGGTESLGGLWNINSDSIPSGVTSRLTGRSTSLVEGRSCGWVPPPPGFAPLAPRPGPELSPSPTSPTATPTTSSRYKTELCRTYSESGRCRYGAKCQFAHGLGELRQANRHPKYKTELCHKFYLQGRCPYGSRCHFIHNPTEDLALPGQPHVLRQSISFSGLPSGRRSSPPPPGFSGPSLSSCSFSPSSSPPPPGDLPLSPSAFSAAPGTPVTRRDPNQACCPSCRRSTTPSTIWGPLGGLARSPSAHSLGSDPDDYASSGSSLGGSDSPVFEAGVFGPPQTPAPPRRLPIFNRISVSE
For B2, the binding [4] was “no binding” and the binding [5] was “binds”.
